Assay results: the supplement of paper PMC3334620
Over roughly 33,000 sequences, “E-score (-0.5 to 0.5)” has its median near -0.04; the highest 2% begin near 0.36. The list shows a part of the results.

target: T1, Hmlalpha2 (UniProt P0CY09); assay: PBM E-score (8-mer binding enrichment) (E-score (-0.5 to 0.5)); higher = stronger / more preferred TF binding; most listed sequences are background and not binding sites; details: protein concentration: 200 nM; construct: GST-full length
T1 sequence: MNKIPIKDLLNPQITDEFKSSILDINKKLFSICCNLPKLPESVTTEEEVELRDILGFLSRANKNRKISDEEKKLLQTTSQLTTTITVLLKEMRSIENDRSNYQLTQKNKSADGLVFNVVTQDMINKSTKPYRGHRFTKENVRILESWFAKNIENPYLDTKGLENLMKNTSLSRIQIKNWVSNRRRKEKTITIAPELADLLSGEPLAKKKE
Procedure: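 Universal 'all 10-mer' protein binding microarrays (Agilent AMADID 015681) probed with GST-tagged S. cerevisiae TFs (full-length or DBD) made by in vitro transcription/translation (PURExpress), about 100-200 nM. Bound TF was detected with fluorescent anti-GST. Each ungapped 8-mer (which stands for itself and its reverse complement) is scored by the PBM enrichment score (E-score), a modified Wilcoxon-Mann-Whitney statistic from -0.5 to +0.5, computed with the Universal PBM Analysis Suite. Scale: above 0.35 generally sequence-specific binding.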

| Sequence | PBM E-score |
| --- | --- |
| AGAAGCCG | -0.23 |
| GATCTCCC | -0.307 |
| ACAACAAT | 0.22 |
| ATGCAGTC | -0.011 |
| CACCCGAG | -0.263 |
| AGCTATTC | -0.185 |
| ACTTGGCT | -0.0523 |
| CTAACAGA | 0.00369 |
| GGCGCTCA | -0.155 |
| GGCGGCGA | -0.179 |
| AGAGCATC | -0.221 |
| TACGGCGA | -0.0117 |
| GTACAATA | 0.31 |
| CCGAGTAC | 0.00214 |
| CCTATAAC | 0.027 |
| ATATATCG | 0.0853 |
| AAGTCGTA | 0.0637 |
| CAGACCTC | -0.145 |
| GGGGGCAA | -0.346 |
| ACTCCCTG | -0.167 |
| AGTCAACA | 0.269 |
| CAGGGCAA | -0.0762 |

| Sequence | PBM E-score |
| --- | --- |
| AACGTAAC | 0.207 |
| CATCAAGA | -0.0489 |
| AAAAGTCT | -0.0887 |
| TGAATACA | 0.397 |
| CAAAATAG | -0.151 |
| AGCATGGA | -0.00786 |
| AGCGACAG | -0.154 |
| GAGTGGAA | -0.112 |
| AGGGCCAA | -0.236 |
| GCTATGAC | -0.165 |
| AGCCAATC | -0.198 |
| ACGTCAGC | 0.114 |
| CCGTCACG | -0.201 |
| TCCGAGCA | 0.0287 |
| CCAAAGGC | -0.0627 |
| ACCTAGCA | 0.0501 |
| GAAGGCAA | -0.213 |
| AAGATATG | 0.131 |
| CGTAGTAA | 0.203 |
| AATCCAGG | -0.107 |
| ACAGACGA | 0.0861 |
| AATGCGAT | 0.0785 |

| Sequence | PBM E-score |
| --- | --- |
| CACGTGAG | 0.0837 |
| GCCCGATA | -0.151 |
| CCGCAAAG | -0.131 |
| ACGGTTTC | -0.101 |
| GCACATAC | -0.0597 |
| ACGTCTCA | 0.0957 |
| CTGGTCGA | -0.258 |
| AATTCGAA | 0.0227 |
| GATAGTTA | 0.0121 |
| CTAGCTCA | -0.0217 |
| AGTATGCC | -0.0836 |
| CATGGATC | -0.13 |
| AGGAGCAA | -0.297 |
| AAACATCA | 0.278 |
| AGGTAGGG | -0.236 |
| GACCTTGA | -0.0898 |
| AGACGTTA | 0.101 |
| AGAATTCC | -0.12 |
| ACACTTGG | -0.121 |
| GGTGCCAA | -0.0608 |
| ACTTCGAG | -0.109 |
| ATCGGCTC | 0.0259 |

| Sequence | PBM E-score |
| --- | --- |
| AAGGATGA | 0.0106 |
| CATGCACG | 0.181 |
| CACTATTC | 0.0491 |
| AAGAGATG | -0.0147 |
| CTGGACCA | -0.101 |
| AAGTTCGG | -0.0732 |
| TGTCAGAA | 0.109 |
| GCTACAAA | 0.0715 |
| ATGCAACC | -0.0909 |
| ACGTTGAA | 0.186 |
| CGAGAATC | -0.0327 |
| ATCGACCA | -0.177 |
| ACACAATC | 0.349 |
| GGATTAAC | 0.198 |
| CCCGCCTA | -0.0214 |
| AAGCCCGA | -0.159 |
| CGTCTAGC | 0.0382 |
| AATAAGAC | 0.0589 |
| ATGATATC | -0.0185 |
| CGCCGCTC | -0.135 |
| ATGAGCCA | -0.0144 |
| CCCCACGC | -0.411 |

| Sequence | PBM E-score |
| --- | --- |
| AGGACTCG | -0.0869 |
| GACAAATA | 0.161 |
| CAGGGATC | -0.28 |
| ACCCGCAC | -0.246 |
| TGATTGCA | 0.134 |
| AAATCCCG | -0.294 |
| AGGATTGC | -0.148 |
| CAGACGGG | -0.25 |
| CACAGGGC | -0.0847 |
| CACGGCAA | 0.0473 |
| AACATCAG | 0.214 |
| TACGGAAA | -0.11 |
| CGTGCCCA | -0.162 |
| AAATGGTC | -0.0885 |
| TACCGACA | -0.00492 |
| ATCTCAGC | -0.107 |
| CGCATTCC | -0.284 |
| AAAGCCAT | 0.0384 |
| GTGAGTGA | -0.0437 |
| ACCCTAAC | 0.0443 |
| GCCAAAGC | -0.326 |
| AATGATAG | 0.0254 |
